Reference: the supplement of paper PMC12217912
Some of the results follow. Sequences were assembled here from the parent chain. Values near 0.05 are background.

B1: TEV protease; numbered along this chain (parent)
chain: MGESLFKGPRDYNPISSSICHLTNESDGHTTSLYGIGFGPFIITNKHLFRRNNGTLVVQSLHGVFKVKDTTTLQQHLVDGRDMIIIRMPKDFPPFPQKLKFREPQREERICLVTTNFQTKSMSSMVSDTSCTFPSGDGIFWKHWIQTKDGQCGSPLVSTRDGFIVGIHSASNFTNTNNYFTSVPKNFMELLTNQEAQQWVSGWRLNADSVLWGGHKVFMVKPEEPFQPVKEATQL

Variants of: B1
Experiment: raw area under fraction-flipped curve 0-4 h after induction (AUC4h, not background-subtracted), DNA-recorder readout of cleavage of the substrate (dimensionless); higher = more cleavage of the substrate by the protease variant
Settings: temperature: 34 °C; time window: 0-4 h after rhamnose induction
Protocol: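 In vivo DNA recorder in E. coli TOP10(DE3) ΔrhaA at 34 °C. Each TEVp single-site mutant (parent TEVp 0) is paired with a single-site variant of the 7-mer TEVs (canonical ENLYFQ|S). The substrate sits between flexible linkers in a Bxb1-sfGFP-TEVs-SsrA fusion, so cleavage stabilises Bxb1 and speeds flipping of a recombination array, read by NGS. The value is the raw area under the fraction-flipped curve over 0-4 h after rhamnose induction (AUC4h), with ≥20 reads per time point. It is not background-subtracted; inactive controls average about 0.047.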
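Also: Bxb1 expression induced with 0.2% (w/v) L-rhamnose at OD600 near 0.5, cultures sampled hourly, flipped fraction per protease–substrate barcode pair counted by paired-end Illumina sequencing.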

Variant	area with substrate ENCYFQS	area with substrate ENDYFQS	area with substrate ENEYFQS	area with substrate ENFYFQS	area with substrate ENGYFQS	area with substrate ENHYFQS	area with substrate ENIYFQS	area with substrate ENKYFQS	area with substrate ENQYFQS	area with substrate ENRYFQS	area with substrate ENSYFQS	area with substrate ENTYFQS	area with substrate ENVYFQS	area with substrate ENWYFQS	area with substrate ENAYFQS	area with substrate ENMYFQS	area with substrate ENNYFQS	area with substrate ENPYFQS	area with substrate ENYYFQS
I139Y	0.069	0.0685	0.0573	0.0803	0.0586	0.0611	0.123	0.0719	0.0483	0.0627	0.0599	0.0645	0.0832	0.0095	–	–	–	–	–
P9G	0.0581	0.0598	0.0462	0.0526	0.0506	–	0.112	0.064	0.0466	–	0.0627	–	0.0816	0.0534	0.0383	0.0737	0.0661	0.0349	–
W203E	0.0535	0.0602	0.0456	0.0584	0.061	0.0676	–	–	0.0529	–	0.06	0.0643	0.0626	–	0.0702	0.0572	–	0.071	–
M122H	0.0726	0.0628	0.0423	0.0763	0.0651	–	0.105	0.065	0.0613	0.0475	0.0652	0.0622	0.0776	–	0.0729	0.0732	–	0.0313	–
S154P	0.0655	0.0655	0.0652	0.0629	0.0642	–	0.0444	0.065	–	0.056	–	0.0632	–	0.0638	0.0451	0.0564	0.058	–	0.0676
I164P	0.0231	0.0543	0.0589	0.0484	0.0534	0.0579	0.047	0.0369	0.0568	0.0595	0.0482	0.0366	0.0557	0.0335	0.0435	0.0523	0.0518	–	–
R160H	0.0824	0.117	0.0553	0.0834	–	–	–	0.0559	0.063	–	–	0.0653	0.0751	–	0.0561	–	0.0588	0.068	–
I19C	0.0645	–	0.0629	0.0486	0.071	–	0.0988	0.0468	0.0519	0.0491	0.0657	0.0588	0.098	0.0331	–	–	0.0617	0.0457	0.0601
I19L	0.0724	0.0585	0.0602	–	–	0.059	–	0.0649	0.0609	0.0676	0.0858	0.0579	0.0804	–	0.0606	0.0945	–	0.0728	–
F140E	0.0706	0.079	0.057	0.0689	0.0666	0.0472	0.0546	0.0604	0.0593	0.0712	0.0711	0.0629	0.067	0.0503	0.0674	–	–	0.072	0.0666
S201I	0.0647	0.06	0.0531	0.0675	0.0564	–	–	–	0.106	–	0.0625	0.0509	0.0887	–	0.0532	–	0.0552	–	–
N13A	0.0589	0.0639	0.0613	0.0674	–	0.053	0.104	–	0.0592	0.0596	0.0614	0.0653	0.0953	–	0.0614	0.0672	0.0627	0.0628	0.0745
V58K	0.0292	–	0.0326	–	–	0.0431	0.048	–	–	0.0309	0.0522	0.0301	–	0.0394	0.0416	–	–	0.0512	–
